Assay results from the supplement of paper PMC10498489.
Hit rate of the full screen: of about 2,300 compounds, about 330 (14%) showed activity.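 How the source made its calls: active = median modified Z-score above 1.96; inactive = 1.96 or below.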 The entries are a selection whose mix differs from that of the whole data set.

Test system: HepG2 Srxn1-GFP reporter cells (+30 nM CDDO-Me)
Assay: Srxn1-GFP intensity median modified Z-score relative to plate median; higher = stronger NRF2 / oxidative stress reporter activation, active = hit call of the paper
Settings: 10 µM; exposure time: 24h
How it was run: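 HepG2 Srxn1-GFP BAC reporter cells were seeded at 20,000 per well in 96-well plates and co-exposed for 24 h to compound at 10 μM and an NRF2 activator at 30 nM, with DMSO at ≤0.1%, in three replicate plates. Cells were fixed with formaldehyde, stained with Hoechst and imaged by confocal microscopy, and cytoplasmic GFP was measured per cell, with images holding under 100 cells discarded. The reported value is the median over replicates of each plate's modified Z-score of GFP intensity. For this score, scaling used 1.4826 × median absolute deviation.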

Srxn1-GFP intensity median modified Z-score, active:
CC1(C)C(=O)C=C[C@@]2(C)C1CC(=O)[C@]1(C)C2CC[C@@]2(C)[C@H](c3ccoc3)OC(=O)C3O[C@]321 (stereo partly specified) [euspeclibcmpd1588] 13, CSc1nc2cc(Cl)c(Oc3cccc(Cl)c3Cl)cc2[nH]1 [euspeclibcmpd1225] 4.92, COC(=O)c1c(C)cc(OC(=O)c2c(C)cc(O)c(C=O)c2O)c(C)c1O [euspeclibcmpd1556] 12.5, N#C/C(=C\c1ccc(SC(F)(F)F)cc1)c1nnc2n1CCCCC2 2.21, O=c1oc2cc(O)ccc2s1 [euspeclibcmpd1146] 5.96, N#CCC(=O)NN [euspeclibcmpd1098] 3.08, CC12CCC(=O)N1C(C(=O)NCCCNS(C)(=O)=O)CS2 (stereo unspecified) 2.02, Oc1cccc(O)c1 [euspeclibcmpd262] 13.8, CC[C@@]1(O)CC(=O)c2c(cc3c(O)c4c(O)ccc(O)c4c(O)c3c2O)C1C(=O)OC (stereo partly specified) [euspeclibcmpd1470] 70.7, CC(=O)CC(c1ccccc1)c1c(O)c2ccccc2oc1=O (stereo unspecified) [euspeclibcmpd321] 5.96, CC1CN(C(=O)CSc2nc3ccc(Br)cc3c3nc(=O)c(-c4ccccc4)nn23)CC(C)O1 (stereo unspecified) 2.28, Cc1cc(O)c2c(c1)C(=O)c1cccc(O)c1C2=O [euspeclibcmpd1712] 4.5, C=C(C)[C@@H]1CC[C@]2(CO)CC[C@]3(C)[C@H](CCC4[C@@]5(C)CC[C@H](O)C(C)(C)C5CC[C@]43C)C12 (stereo partly specified) [euspeclibcmpd1538] 10.7, Oc1c(Cl)cc(Cl)c(Cl)c1Cc1c(O)c(Cl)cc(Cl)c1Cl [euspeclibcmpd146] 44.1

Srxn1-GFP intensity median modified Z-score, inactive:
NC1CONC1=O (stereo unspecified) [euspeclibcmpd2411] -0.00655, CC(=O)c1ccc[nH]1 [euspeclibcmpd1344] -0.0934, CC(C)(C)CC(C)(C)c1cc(Cc2cc(C(C)(C)CC(C)(C)C)cc(-n3nc4ccccc4n3)c2O)c(O)c(-n2nc3ccccc3n2)c1 [euspeclibcmpd1314] 0.221, NC(=O)c1cnccn1 [euspeclibcmpd257] -0.418, O=C(CCNNC(=O)c1ccncc1)NCc1ccccc1 [euspeclibcmpd1233] -0.315, CC(=O)NCCCCCC(=O)O [euspeclibcmpd1113] -0.625, CS(=O)(=O)c1ccc([C@H](O)[C@H](CF)NC(=O)C(Cl)Cl)cc1 [euspeclibcmpd827] -0.193, Cc1ncc([N+](=O)[O-])n1CC(C)O (stereo unspecified) [euspeclibcmpd1190] -0.252, CC1=C(/C=C/C(C)=C/C=C/C(C)=C/CO)C(C)(C)CCC1 [euspeclibcmpd419] -0.0835, C[N+](C)(C)CC(O)CC(=O)O (stereo unspecified) [euspeclibcmpd2119] -0.518, CCOc1ccc2nc(S(N)(=O)=O)sc2c1 [euspeclibcmpd779] 1.74, CC(=O)Oc1cc(-c2coc3cc(OC(C)=O)c(OC(C)=O)c(OC(C)=O)c3c2=O)cc(OC(C)=O)c1OC(C)=O [euspeclibcmpd2320] -0.508, O=C(O)c1ccccc1O [euspeclibcmpd2439] -0.701, O=C(O)c1ccccc1O [euspeclibcmpd2452] -0.566, CCOC(=S)SSC(=S)OCC [euspeclibcmpd2159] 0.401, O=C1c2ccccc2C(=O)C1c1ccc(Br)cc1 [euspeclibcmpd777] -0.247, CC(C)OC(=O)C(C)(C)Oc1ccc(C(=O)c2ccc(Cl)cc2)cc1 [euspeclibcmpd368] -0.37, Cc1c(O)c(=O)n(-c2ccccc2)n1C [euspeclibcmpd1750] -0.19, O=C(O)CCC(=O)Nc1ccc(S(=O)(=O)N=c2[nH]ccs2)cc1 [euspeclibcmpd428] 0.358, CC(N)CCCC(C)(C)O (stereo unspecified) [euspeclibcmpd1127] 0.138, Cc1cc(O)cc(C)c1Cl [euspeclibcmpd58] 0.6, O=C(O)C=Cc1ccc(O)c(O)c1 [euspeclibcmpd1336] -0.408, CC(C)N=C(N)N=C(N)Nc1ccc(Cl)cc1 [euspeclibcmpd665] -0.77, CC1CC(OC(=O)c2ccccc2O)CC(C)(C)C1 (stereo unspecified) [euspeclibcmpd580] 0.199, CC1(C)C(=O)C2C[C@@]3(O)C4=CC(=O)O[C@@H](c5ccoc5)[C@]4(C)CCC3[C@](C)(C2=O)[C@H]1CC(=O)O (stereo partly specified) [euspeclibcmpd1558] -0.051, O=c1[nH]c(=O)n([C@H]2C[C@H](O)C(CO)O2)cc1I (stereo partly specified) [euspeclibcmpd2208] 0, CCC1CS/C(=N\c2ccc(Cl)c(Cl)c2)N1C(=O)CC1CC2CCC1C2 (stereo unspecified) 1.31, C[N+](C)(C)CC(=O)O [euspeclibcmpd512] 0.105, OCCN(CCO)c1nc(N2CCCCC2)c2nc(N(CCO)CCO)nc(N3CCCCC3)c2n1 [euspeclibcmpd102] -0.597, CCN(CC)CCNC(C(=O)OCCC(C)C)c1ccccc1 (stereo unspecified) [euspeclibcmpd1224] 0.369, Cc1c(-c2cnccn2)ssc1=S [euspeclibcmpd1085] -0.63, CC(=O)NS(=O)(=O)c1ccc(N)cc1 [euspeclibcmpd273] -0.608, Cc1cn([C@H]2C=C[C@@H](CO)O2)c(=O)[nH]c1=O [euspeclibcmpd472] -0.536, CN1C(CCl)Nc2cc(Cl)c(S(N)(=O)=O)cc2S1(=O)=O (stereo unspecified) [euspeclibcmpd880] 0.45, OCc1ccccc1O[C@@H]1O[C@H](CO)[C@@H](O)[C@H](O)[C@H]1O [euspeclibcmpd447] -0.273, Oc1ccc([C@H]2Oc3cc(O)cc(O)c3C[C@H]2O)cc1 [euspeclibcmpd1689] 0.539, NS(=O)(=O)c1cc2c(cc1Cl)NC(C1CC3C=CC1C3)NS2(=O)=O (stereo unspecified) [euspeclibcmpd561] 0.0854, O=C1NS(=O)(=O)c2ccccc21 [euspeclibcmpd2045] -0.21, c1ccc2c(CC3=NCCN3)cccc2c1 [euspeclibcmpd204] -0.697, CCN(CC)CC(=O)Nc1c(C)cccc1C [euspeclibcmpd339] -0.436, COc1ccc(-c2coc3c(O)c(O)c(OC)cc3c2=O)cc1 [euspeclibcmpd1527] -0.524, CS(=O)(=O)OCCCCOS(C)(=O)=O [euspeclibcmpd40] 1.41, Cc1c(NC(=O)c2cccnc2)c(=O)n(-c2ccccc2)n1C [euspeclibcmpd1132] -0.441, NS(=O)(=O)c1cc2c(cc1C(F)(F)F)NCNS2(=O)=O [euspeclibcmpd154] -0.214, NC(=O)CCCCC1CCSS1 (stereo unspecified) [euspeclibcmpd1215] -0.458, CCC1(C)OC(=O)N(C)C1=O (stereo unspecified) [euspeclibcmpd785] -0.431, NCCCC[C@H](N)C(=O)O [euspeclibcmpd2466] -0.424, COc1cc2c(N3CCN(C(=O)Nc4ccc(OC(C)C)cc4)CC3)ncnc2cc1OCCCN1CCCCC1 [euspeclibcmpd1281] 0.619, CC(C(=O)O)c1ccc(-c2ccccc2)c(F)c1 (stereo unspecified) [euspeclibcmpd133] -0.0224, O=c1ccc2cc(O)c(O)cc2o1 [euspeclibcmpd1998] -0.574, C[C@H](CCC(=O)NCC(=O)O)[C@H]1CCC2C3C(C[C@H](O)[C@@]21C)[C@@]1(C)CC[C@@H](O)CC1C[C@H]3O (stereo partly specified) [euspeclibcmpd1671] -0.257, Cc1cccc(C)c1NC(=O)C(C)N (stereo unspecified) [euspeclibcmpd2310] -0.407, CN(C)C(=O)C(CCN1CCC(O)(c2ccc(Cl)cc2)CC1)(c1ccccc1)c1ccccc1 [euspeclibcmpd977] -0.12, Nc1ccc(S(=O)(=O)N=c2cnc3ccccc3[nH]2)cc1 [euspeclibcmpd2157] 0.000648, Cc1cc(C)[nH]c(=NS(=O)(=O)c2ccc(N)cc2)n1 [euspeclibcmpd276] -0.664, CC[C@H]1OC(=O)C(C)[C@@H](O[C@H]2C[C@@](C)(OC)[C@@H](O)[C@H](C)O2)[C@H](C)[C@@H](O[C@@H]2O[C@H](C)C[C@H](N(C)C)[C@H]2O)[C@](C)(O)CC(C)C(=NOCOCCOC)C(C)[C@@H](O)[C@]1(C)O (stereo partly specified) [euspeclibcmpd567] -0.00752, CC(=O)N1CCCC1C(=O)O (stereo unspecified) [euspeclibcmpd1747] -0.236, COc1ccc(/C=C/C(=O)Nc2ccccc2C(=O)O)cc1OC [euspeclibcmpd564] 0.903, CC(=O)OC1(C(C)=O)CCC2C3=CC(Cl)=C4CC(=O)C5CC5C4(C)C3CCC21C (stereo unspecified) [euspeclibcmpd1971] -0.163, Cc1c(N(C)C)c(=O)n(-c2ccccc2)n1C [euspeclibcmpd1031] -0.314, C[C@@H]1CC[C@H]2C(C)(C)C3CC12CC[C@@]3(C)O (stereo partly specified) [euspeclibcmpd1468] -0.304, Cc1cc(=O)[nH]c(=S)[nH]1 [euspeclibcmpd196] 0
